Measurements published in a collection of fitness landscapes (doi:10.1126/science.1257360).
The list shows a part of the results.

B1: PhoQ; a variant is named by its letters at X, in order, P23837 (parent)
chain: MKKLLRLFFPLSLRVRFLLATAAVVLVLSLAYGMVALIGYSVSFDKTTFRLLRGESNLFYTLAKWENNKLHVELPENIDKQSPTMTLIYDENGQLLWAQRDVPWLMKMIQPDWLKSNGFHEIEADVNDTSLLLSGDHSIQQQLQEVREDDDDAEMTHSVAVNVYPATSRMPKLTIVVVDTIPVELKSSYMVWSWFIYVLSANLLLVIPLLWVAAWWSLRPIEALAKEVRELEEHNRELLNPATTRELTSLVRNLNRLLKSERERYDKYRTTLTDLTHSLKTPLXXLQXXLRSLRSEKMSVSDAEPVMLEQISRISQQIGYYLHRASMRGGTLLSRELHPVAPLLDNLTSALNKVYQRKGVNISLDISPEISFVGEQNDFVEVMGNVLDNACKYCLEFVEISARQTDEHLYIVVEDDGPGIPLSKREVIFDRGQRVDTLRPGQGVGLAVAREITEQYEGKIVAGESMLGGARMEVIFGRQHSAPKDE

Variants of: B1
Experiment: enrichment ratio after two sorts for PhoP signalling (ratio (wild type AVST 3.29)); higher = more functional
Details: with PhoP (E. coli)

| Variant | enrichment ratio |
| --- | --- |
| GTGM | 6.32 |
| SASA | 4.07 |
| WSAT | ≤ 0.25 |
| QAVS | ≤ 0.25 |
| DLNA | ≤ 0.25 |
| LRVF | ≤ 0.25 |
| RELE | ≤ 0.25 |
| QCGR | ≤ 0.25 |
| HEGC | ≤ 0.25 |
| ILFR | ≤ 0.25 |
| FKFS | ≤ 0.25 |
| WCGD | ≤ 0.25 |
| KKEL | ≤ 0.25 |
| TRSY | ≤ 0.25 |
| SHQV | ≤ 0.25 |
| YESV | ≤ 0.25 |
| ELWK | ≤ 0.25 |
| EPHQ | ≤ 0.25 |
| GEAY | 23.4 |
| CFLF | ≤ 0.25 |
| LAYD | ≤ 0.25 |
| AIWE | ≤ 0.25 |
| ITPG | ≤ 0.25 |
| MARG | ≤ 0.25 |

| Variant | enrichment ratio |
| --- | --- |
| MYEY | ≤ 0.25 |
| WDIC | ≤ 0.25 |
| ASVS | 5.6 |
| SVMK | 7.82 |
| KHMY | ≤ 0.25 |
| YMHG | ≤ 0.25 |
| YPWK | ≤ 0.25 |
| IYNH | ≤ 0.25 |
| LDTA | ≤ 0.25 |
| MWRP | ≤ 0.25 |
| PRKP | ≤ 0.25 |
| YVCA | ≤ 0.25 |
| TWRS | ≤ 0.25 |
| AWAN | ≤ 0.25 |
| CFSL | ≤ 0.25 |
| QQVT | ≤ 0.25 |
| YPFT | ≤ 0.25 |
| HTCN | ≤ 0.25 |
| AIGG | 4.61 |
| GWWH | ≤ 0.25 |
| SHTC | ≤ 0.25 |
| RLLR | ≤ 0.25 |
| VEEQ | ≤ 0.25 |
| HLTH | ≤ 0.25 |

| Variant | enrichment ratio |
| --- | --- |
| PSEM | ≤ 0.25 |
| VVQG | ≤ 0.25 |
| LPIS | ≤ 0.25 |
| RMAW | ≤ 0.25 |
| YFEL | ≤ 0.25 |
| MAML | 25.7 |
| ELSV | ≤ 0.25 |
| AWRP | 0.367 |
| NEWY | ≤ 0.25 |
| KYLF | ≤ 0.25 |
| EMSW | ≤ 0.25 |
| ADMM | ≤ 0.25 |
| SGGS | 2.67 |
| MGCY | 29.2 |
| SNNG | 9.4 |
| NRPH | ≤ 0.25 |
| TKEM | ≤ 0.25 |
| GHTQ | ≤ 0.25 |
| PQGC | ≤ 0.25 |
| EGAW | ≤ 0.25 |
| AFFI | ≤ 0.25 |
| QRRS | ≤ 0.25 |
| NWYW | ≤ 0.25 |
| RIHL | ≤ 0.25 |

| Variant | enrichment ratio |
| --- | --- |
| RSFE | ≤ 0.25 |
| WMPH | ≤ 0.25 |
| MMVD | ≤ 0.25 |
| YYQY | ≤ 0.25 |
| LVHD | ≤ 0.25 |
| SPLI | ≤ 0.25 |
| DIEH | ≤ 0.25 |
| IGWG | ≤ 0.25 |
| HFVN | ≤ 0.25 |
| YFTM | ≤ 0.25 |
| IPLH | ≤ 0.25 |
| DAIF | ≤ 0.25 |
| RLPC | ≤ 0.25 |
| PLNM | ≤ 0.25 |
| THSW | ≤ 0.25 |
| RWRP | ≤ 0.25 |
| NMYK | ≤ 0.25 |
| GDQH | 4.11 |
| TYPS | ≤ 0.25 |
| GCGV | ≤ 0.25 |
| CSAF | ≤ 0.25 |
| IFAF | ≤ 0.25 |
| DVQI | ≤ 0.25 |
| IRHA | ≤ 0.25 |

| Variant | enrichment ratio |
| --- | --- |
| YYGG | ≤ 0.25 |
| PLLH | ≤ 0.25 |
| VYKL | ≤ 0.25 |
| GAVM | ≤ 0.25 |
| GLTD | ≤ 0.25 |
| GCLH | 1.51 |
| YFYD | ≤ 0.25 |
| RSFS | ≤ 0.25 |
| CIGA | ≤ 0.25 |
| YFHA | ≤ 0.25 |
| ARKQ | ≤ 0.25 |
| RANP | ≤ 0.25 |
| PNND | ≤ 0.25 |
| DKSK | ≤ 0.25 |
| HVGH | ≤ 0.25 |
| IKQH | ≤ 0.25 |
| KIGM | ≤ 0.25 |
| FVCL | 2.8 |
| QMLL | ≤ 0.25 |
| QDET | ≤ 0.25 |
| HPNI | ≤ 0.25 |
| DLQA | ≤ 0.25 |
| ISTG | ≤ 0.25 |
| DTGI | ≤ 0.25 |

| Variant | enrichment ratio |
| --- | --- |
| QEVL | ≤ 0.25 |
| STKF | ≤ 0.25 |
| QTVF | ≤ 0.25 |
| MHHI | ≤ 0.25 |
| FGPK | ≤ 0.25 |
| EHRG | ≤ 0.25 |
| HAKT | ≤ 0.25 |
| YETM | ≤ 0.25 |
| WYLR | ≤ 0.25 |
| HRSE | ≤ 0.25 |
| YDWR | ≤ 0.25 |
| FPTK | ≤ 0.25 |
| VWRL | ≤ 0.25 |
| QDAR | ≤ 0.25 |
| QSYM | 0.977 |
| DFHI | ≤ 0.25 |
| DTRP | ≤ 0.25 |
| SSYK | ≤ 0.25 |
| YSVL | 5.73 |
| FHPS | ≤ 0.25 |
| ETSV | ≤ 0.25 |
| LRDT | ≤ 0.25 |
| STVK | 8.45 |
| DRHA | ≤ 0.25 |

| Variant | enrichment ratio |
| --- | --- |
| MFYE | ≤ 0.25 |
| YGWM | ≤ 0.25 |
| TPQG | ≤ 0.25 |
| RSAA | ≤ 0.25 |
| NKTL | ≤ 0.25 |
| VLSQ | ≤ 0.25 |
| ALIV | 0.811 |
| WVKK | ≤ 0.25 |
| TWIY | ≤ 0.25 |
| GMWY | ≤ 0.25 |
| YWNQ | ≤ 0.25 |
| ARND | ≤ 0.25 |
| PMQM | ≤ 0.25 |
| AYKL | ≤ 0.25 |
| AYEY | ≤ 0.25 |
| YAHS | ≤ 0.25 |
| DELT | ≤ 0.25 |
| HAAG | ≤ 0.25 |
| MFHT | ≤ 0.25 |
| PDFN | ≤ 0.25 |
| HSPH | ≤ 0.25 |
| LSWC | ≤ 0.25 |
| SVPV | 5 |
| FHNW | ≤ 0.25 |

| Variant | enrichment ratio |
| --- | --- |
| IQRK | ≤ 0.25 |
| FLHM | ≤ 0.25 |
| MTKE | ≤ 0.25 |
| KRRW | ≤ 0.25 |
| VCRP | ≤ 0.25 |
| IEHV | ≤ 0.25 |
| GLLS | ≤ 0.25 |
| DVRS | ≤ 0.25 |
| LFIC | ≤ 0.25 |
| FQEA | ≤ 0.25 |
| EMIN | ≤ 0.25 |
| KLYI | ≤ 0.25 |
| DFSS | ≤ 0.25 |
| FGIQ | ≤ 0.25 |
| QMRW | ≤ 0.25 |
| WLIA | ≤ 0.25 |
| RFVN | ≤ 0.25 |
| KKNC | ≤ 0.25 |
| PKAG | ≤ 0.25 |
| ELHY | ≤ 0.25 |
| QLCC | ≤ 0.25 |
| AKWA | ≤ 0.25 |
| STWW | ≤ 0.25 |
| WKQF | ≤ 0.25 |

| Variant | enrichment ratio |
| --- | --- |
| HSIW | ≤ 0.25 |
| PWRQ | ≤ 0.25 |
| KYCR | ≤ 0.25 |
| TMQR | 8.83 |
| KPDH | ≤ 0.25 |
| VMAQ | ≤ 0.25 |
| LWFI | ≤ 0.25 |
| VKRR | ≤ 0.25 |
| QPIQ | ≤ 0.25 |
| HLCC | ≤ 0.25 |
| TFVS | ≤ 0.25 |
| VHFC | ≤ 0.25 |
| MYWP | ≤ 0.25 |
| HTIL | ≤ 0.25 |
| HIVH | ≤ 0.25 |
| AERD | ≤ 0.25 |
| GNWF | ≤ 0.25 |
| LMDE | ≤ 0.25 |
| WKLH | ≤ 0.25 |
| HHQP | ≤ 0.25 |
| FDLA | ≤ 0.25 |
| FMLF | ≤ 0.25 |
| ASYV | ≤ 0.25 |
| SIMH | 10 |

| Variant | enrichment ratio |
| --- | --- |
| FRPW | ≤ 0.25 |
| NLYY | ≤ 0.25 |
| MNKC | ≤ 0.25 |
| SRCG | ≤ 0.25 |
| DYSN | ≤ 0.25 |
| GMHP | ≤ 0.25 |
| PEYW | ≤ 0.25 |
| SLCI | 10.1 |
| KLVY | ≤ 0.25 |
| FMVG | ≤ 0.25 |
| HNQT | ≤ 0.25 |
| STAQ | 7.82 |
| SNRM | ≤ 0.25 |
| TNVE | ≤ 0.25 |
| WLTW | ≤ 0.25 |
| FYIL | ≤ 0.25 |
| VITQ | ≤ 0.25 |
| PPRP | ≤ 0.25 |
| ETAP | ≤ 0.25 |
| SVQP | ≤ 0.25 |
| VGNH | ≤ 0.25 |
| TIEP | ≤ 0.25 |
| YNLY | ≤ 0.25 |
| YFIK | ≤ 0.25 |

| Variant | enrichment ratio |
| --- | --- |
| ERWK | ≤ 0.25 |
| NSID | ≤ 0.25 |
| MSWS | 8.59 |
| MRDC | ≤ 0.25 |
| KMVW | ≤ 0.25 |
| HAQY | ≤ 0.25 |
| IVKK | ≤ 0.25 |
| PHFT | ≤ 0.25 |
| GMCE | ≤ 0.25 |
| SGKM | ≤ 0.25 |
| MSMW | ≤ 0.25 |
| DSQP | ≤ 0.25 |
| PYSV | ≤ 0.25 |
| HKGN | ≤ 0.25 |
| MWIP | ≤ 0.25 |
| FAKI | ≤ 0.25 |
| LEIY | ≤ 0.25 |
| RMSY | ≤ 0.25 |
| AVIN | 0.567 |
| STLF | 14.6 |
| SKDW | ≤ 0.25 |
| LLNS | ≤ 0.25 |
| HCQK | ≤ 0.25 |
| GRWV | ≤ 0.25 |

| Variant | enrichment ratio |
| --- | --- |
| NDSW | ≤ 0.25 |
| EHSQ | ≤ 0.25 |
| LPQA | ≤ 0.25 |
| DNCI | ≤ 0.25 |
| NSIT | ≤ 0.25 |
| YRID | ≤ 0.25 |
| DHNA | ≤ 0.25 |
| VKNW | ≤ 0.25 |
| KERQ | ≤ 0.25 |
| LTEP | ≤ 0.25 |
| PWIP | ≤ 0.25 |
| KGIQ | ≤ 0.25 |
| MGPC | ≤ 0.25 |
| WCLS | ≤ 0.25 |
| YVRD | ≤ 0.25 |
| ADMF | ≤ 0.25 |
| GLPF | ≤ 0.25 |
| RPLC | ≤ 0.25 |
| VMNN | ≤ 0.25 |
| RYMR | ≤ 0.25 |
| EDRW | ≤ 0.25 |
| YQEC | ≤ 0.25 |
| MDRL | ≤ 0.25 |
| AGVA | 1.62 |

| Variant | enrichment ratio |
| --- | --- |
| RCSE | ≤ 0.25 |
| VLEW | ≤ 0.25 |
| PAMD | ≤ 0.25 |
| NCYI | ≤ 0.25 |
| LTLT | ≤ 0.25 |
| EHTD | ≤ 0.25 |
| KDVM | ≤ 0.25 |
| SLHM | ≤ 0.25 |
| NMLD | ≤ 0.25 |
| IKIS | ≤ 0.25 |
| GIPD | ≤ 0.25 |
| ELDQ | ≤ 0.25 |
| CSLE | ≤ 0.25 |
| DFTG | ≤ 0.25 |
| GGMT | ≤ 0.25 |
| MQPI | ≤ 0.25 |
| HEIT | ≤ 0.25 |
| LTLW | ≤ 0.25 |
